Drawing on paper PMC12495329, this text covers binding for one molecule.

By UniProt entry, the sequences of proteins in these tests, tags left out.
UniProt Q9H4L4: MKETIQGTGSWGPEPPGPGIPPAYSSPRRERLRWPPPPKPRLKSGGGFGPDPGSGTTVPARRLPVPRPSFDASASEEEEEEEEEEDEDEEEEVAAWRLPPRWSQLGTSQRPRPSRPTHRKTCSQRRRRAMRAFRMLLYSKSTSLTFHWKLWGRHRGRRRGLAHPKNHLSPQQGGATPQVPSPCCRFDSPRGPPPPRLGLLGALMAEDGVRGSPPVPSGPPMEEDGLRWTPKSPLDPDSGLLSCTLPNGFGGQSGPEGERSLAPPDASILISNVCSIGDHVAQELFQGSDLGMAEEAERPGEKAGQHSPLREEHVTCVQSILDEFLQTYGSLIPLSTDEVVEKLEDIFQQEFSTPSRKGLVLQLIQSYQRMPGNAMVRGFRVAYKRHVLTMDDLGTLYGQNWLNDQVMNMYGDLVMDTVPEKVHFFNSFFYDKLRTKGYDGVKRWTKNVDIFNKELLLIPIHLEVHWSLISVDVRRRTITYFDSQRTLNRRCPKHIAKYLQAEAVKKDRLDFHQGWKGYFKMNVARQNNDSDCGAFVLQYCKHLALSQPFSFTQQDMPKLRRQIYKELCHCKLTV

Holding throughout (assay): co-IP; reciprocal: COS-7 cotransfected with Twin-Strep-Tag-GRHL2 and FLAG-SENP; lysate on anti-Flag magnetic beads holding the FLAG-SENPs, 4 h, 4 °C; Western blot
(In general: In western blotting, separated proteins are transferred to a membrane and probed.)

Assay [1] deals with T1, FLAG-tagged SENP-1 (WT, full-length) (human) (UniProt Q9P0U3).
T1 sequence: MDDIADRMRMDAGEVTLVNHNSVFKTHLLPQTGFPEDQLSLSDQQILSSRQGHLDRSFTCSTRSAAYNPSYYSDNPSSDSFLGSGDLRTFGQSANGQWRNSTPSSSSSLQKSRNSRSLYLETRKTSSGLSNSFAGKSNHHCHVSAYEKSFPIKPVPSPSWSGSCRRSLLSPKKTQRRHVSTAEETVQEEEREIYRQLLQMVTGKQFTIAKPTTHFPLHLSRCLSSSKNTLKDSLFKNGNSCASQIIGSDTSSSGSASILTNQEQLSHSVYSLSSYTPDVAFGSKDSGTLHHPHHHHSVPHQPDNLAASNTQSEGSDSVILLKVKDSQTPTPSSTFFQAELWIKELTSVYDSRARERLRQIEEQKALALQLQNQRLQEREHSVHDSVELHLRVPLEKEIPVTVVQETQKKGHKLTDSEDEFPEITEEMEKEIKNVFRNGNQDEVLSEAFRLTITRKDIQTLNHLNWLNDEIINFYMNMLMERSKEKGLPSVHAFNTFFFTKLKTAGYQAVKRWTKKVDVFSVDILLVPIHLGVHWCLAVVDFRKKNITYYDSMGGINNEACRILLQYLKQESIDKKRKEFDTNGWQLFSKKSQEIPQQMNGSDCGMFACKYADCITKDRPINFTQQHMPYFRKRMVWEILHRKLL

For assay [2], the target named is T2, FLAG-tagged SENP-2 (WT, full-length) (human) (UniProt Q9HC62).
T2 sequence: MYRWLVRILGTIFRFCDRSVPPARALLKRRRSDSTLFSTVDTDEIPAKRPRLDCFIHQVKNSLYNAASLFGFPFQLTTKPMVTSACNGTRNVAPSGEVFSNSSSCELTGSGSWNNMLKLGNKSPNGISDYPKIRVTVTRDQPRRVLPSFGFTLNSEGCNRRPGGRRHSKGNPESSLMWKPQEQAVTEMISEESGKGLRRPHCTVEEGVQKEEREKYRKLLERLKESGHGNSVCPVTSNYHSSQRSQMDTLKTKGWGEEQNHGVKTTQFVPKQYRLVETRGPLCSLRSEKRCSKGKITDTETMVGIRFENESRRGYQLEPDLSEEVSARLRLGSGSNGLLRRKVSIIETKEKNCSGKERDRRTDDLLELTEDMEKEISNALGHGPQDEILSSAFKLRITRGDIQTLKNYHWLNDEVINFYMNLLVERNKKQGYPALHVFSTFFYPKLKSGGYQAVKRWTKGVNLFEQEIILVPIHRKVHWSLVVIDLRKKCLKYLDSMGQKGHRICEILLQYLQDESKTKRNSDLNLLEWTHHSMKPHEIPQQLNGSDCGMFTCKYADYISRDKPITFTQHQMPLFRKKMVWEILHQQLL

For assay [3], the target named is FLAG-tagged SENP-3 (WT, full-length) (human) (UniProt Q9H4L4).

No constants are given. Whether binding was seen depends on the method and setting. In cells and extracts the contact can be indirect. Some entries that bind do so weakly or less than the wild type. Sequences can lack the tags named with a protein.

B1: GRHL2 with an N-terminal Twin-Strep-Tag (protein, UniProt Q6ISB3 1-625)
chain: MSQESDNNKRLVALVPMPSDPPFNTRRAYTSEDEAWKSYLENPLTAATKAMMSINGDEDSAAALGLLYDYYKVPRDKRLLSVSKASDSQEDQEKRNCLGTSEAQSNLSGGENRVQVLKTVPVNLSLNQDHLENSKREQYSISFPESSAIIPVSGITVVKAEDFTPVFMAPPVHYPRGDGEEQRVVIFEQTQYDVPSLATHSAYLKDDQRSTPDSTYSESFKDAATEKFRSASVGAEEYMYDQTSSGTFQYTLEATKSLRQKQGEGPMTYLNKGQFYAITLSETGDNKCFRHPISKVRSVVMVVFSEDKNRDEQLKYWKYWHSRQHTAKQRVLDIADYKESFNTIGNIEEIAYNAVSFTWDVNEEAKIFITVNCLSTDFSSQKGVKGLPLMIQIDTYSYNNRSNKPIHRAYCQIKVFCDKGAERKIRDEERKQNRKKGKGQASQTQCNSSSDGKLAAIPLQKKSDITYFKTMPDLHSQPVLFIPDVHFANLQRTGQVYYNTDDEREGGSVLVKRMFRPMEEEFGPVPSKQMKEEGTKRVLLYVRKETDDVFDALMLKSPTVKGLMEAISEKYGLPVEKIAKLYKKSKKGILVNMDDNIIEHYSNEDTFILNMESMVEGFKVTLMEI
In the case of B1, the binding result in assay [1] is “binds”; in assay [2], “binds”; in assay [3] it was “no binding”.
